Results as given in US20230174649A1, “PHARMACEUTICAL COMPOSITIONS CONTAINING ANTI-CD47 ANTIBODIES” (I-MAB BIOPHARMA US LIMITED, priority 2020, published 2023).

How the values were obtained:
[1] = test system: HL-60 cells; experiment: Anti-tumor efficacy in subcutaneous HL-60 xenograft model; format: in vivo, female NOG mice
Experimental: HL-60 cells (a human promyelocytic leukemia cell line, ATCC® cat #CCL-240) were maintained in suspension culture in complete cell growth medium at 37° C. in an atmosphere with 5% CO2. The cells were split twice a week to maintain an exponential growth. After culturing, cells were harvested and counted for tumor inoculation.
To establish the xenograft model, HL-60 cells (10×10^6) were suspended in 0.2 mL of PBS with the same volume of Matrigel and subcutaneously injected into the right flank of each mouse. When tumor volume reaches a mean value of approximately 72 mm^3, i.e., on day 6 after inoculation, mice were divided into several groups and treated with PBS (control group), anti-CD47 antibody (i.e., T4J), AZA, or a combination of T4J and AZA, respectively.
At the time of routine monitoring, the animals were daily checked for any effects of tumor growth and treatments on normal behavior such as mobility, food and water consumption (by looking only), body weight gain/loss (body weights were measured twice a week), eye/hair matting and any other abnormal effects. Death and observed clinical signs were recorded.
Tumor size was measured twice a week in two dimensions using a caliper, and the volume was calculated using the formula: Volume (V)=(L×W×W)/2, where L is tumor length (the longest tumor dimension) and W is tumor width (the longest tumor dimension perpendicular to L). The tumor volume was then used for calculating T/C values. The T/C value (in percentage) is an indicator of antitumor effectiveness, in which T and C are the mean volumes of the treatment group and the control groups, respectively.
The percentage of tumor growth inhibition (TGI) was calculated for each group as follows: 100%×(1−[(Vtreated(^final day)−Vtreated(^initial day))/Vcontrol(^final day)−Vcontrol(^initial day)))], where V is the tumor volume.
Tumor body weight was measured at the end of the study. T/C weight value (in percentage) was calculated using the formula: T/C weight %=T weight/C weight×100% where T weight and C weight were the mean tumor body weight of the treatment group and the control group (vehicle group), respectively.
Q=TGI(A+B))/(TGI(A)+TGI(B)−TGI(A)×TGI(B))
According to Jin's formula, Q<0.85 indicates antagonistic effect, 0.85≤Q<1.15 indicates additive effect, and Q≥1.15 indicates synergistic effect.
T-test was performed to compare tumor body weight among groups. One-way ANOVA was performed to compare tumor volume among groups, and when a significant F-statistics (a ratio of treatment variance to the error variance) was obtained, comparisons between groups were carried out with Games-Howell test. All data were analyzed using IBM SPSS software. A P value of less than 0.05 (p<0.05) was considered statistically significant.

[2] = test system: WSU-DLCL2 cells; experiment: Anti-tumor efficacy in WSU-DLCL2 tumor xenograft model; format: in vivo, NOD/SCID mice; conditions: 5 mg/kg each agent
From the text: To establish the xenograft model, human diffuse large B Cell lymphoma (WSU-DLCL2 cells) were subcutaneously (s.c.) injected into 6- to 7-week-old NOD/SCID mice (Shanghai Lingchang Biotechnology Co., Ltd, Shanghai, China) for tumor development. When tumor volume reaches a mean value of approximately 94 mm^3, 32 mice were divided into 4 groups of 8 equally and injected intravenously (i.v.) with PBS (control group), anti-CD47 antibody (i.e. T4J), rituximab, or anti-CD47 antibody T4J+ rituximab at a dose of 5 mg/kg, respectively (See, Table 5). The anti-tumor efficacy studies were performed using a twice per week dosing schedule (5 mg/kg) for 4 weeks.
The first day of antibody administration was designated as day 0. Mice were then monitored for tumor development and progression, and observation continued until day 43. Tumor volumes were measured twice a week in two dimensions (length and width) using a caliper, and the volumes were calculated using the following formula: Volume (V)=(L×W×W)/2, where L is tumor length (the longest tumor dimension) and W is tumor width (the longest tumor dimension perpendicular to L). The percentage of tumor growth inhibition (TGI) was calculated as follows: 100%×(1−[(Vtreated(^finalday)−Vtreated(^initial day))/(Vcontrol(^final day)−Vcontrol(^initial day)))]), where V is the tumor volume. Tumor body weight was measured twice per week after randomization and at day 43. Antibody treatment was then stopped after 43 days of study and mice were euthanized and necropsied for evidence of tumors.
Group comparisons were carried out using one-way analysis of variance (ANOVA). Data analysis were performed using IBM SPSS software version 18.0 (IBM, Armonk, N.Y., U.S.). Values of tumor volume and tumor body weight were expressed as mean±standard error of the mean (SEM). A P value of less than 0.05 (p<0.05) was considered statistically significant.

[3] = test system: Toledo Cells; experiment: FACS-based phagocytosis assay, macrophages cocultured with Toledo cells; format: cell-based, Human
Experimental: FACS-based phagocytosis assays were performed to evaluate the phagocytic abilities of macrophages.
Toledo Cells (a tumor cell line, as a target) were labelled with CellTrace™ Far Red and plated into 96-well plate at a density of 0.15×10^6 cells/well for 12 hours. The Macrophages were prepared as discussed above and then labelled with CellTrace Violet. Next, the macrophages were added into the plate as an effector at an effector:target (Toledo) ratio of 1:3, giving a final density of macrophages at 0.05×10^6 cells/well. Macrophages and tumor cells were cocultured for 2-6 h at 37° C. in the presence of the indicated treatments (small molecule therapeutic agents, CD47 antibody, CD20 antibody or combinations). The incubation time depending on the phagocytosis rate, expecting phagocytosis of 5-20% cells.
Then, cells were acquired and data were analyzed.

[4] = from tumor volume, i.v., BIW × 4 weeks, day 43

B1: T4J: isolated anti-CD47 antibody, SEQ ID NO: 81 and SEQ ID NO: 82 (antibody, listed as Homo sapiens)
heavy: EVQLVESGGGLVKPGGSLRLSCAASGLTFERAWMNWVRQAPGKGLEWVGRIKRKTDGETTDYAAPVKGRFSISRDDSKNTLYLQMNSLKTEDTAVYYCAGSNRAFDIWGQGTMVTVSSASTKGPSVFPLAPCSRSTSESTAALGCLVKDYFPEPVTVSWNSGALTSGVHTFPAVLQSSGLYSLSSVVTVPSSSLGTKTYTCNVDHKPSNTKVDKRV[skipping human IgG4 Fc with S228P (EU numbers)]
light: DIVMTQSPDSLAVSLGERATINCKSSQSVLYAGNNRNYLAWYQQKPGQPPKLLINQASTRASGVPDRFSGSGSGTEFTLIISSLQAEDVAIYYCQQYYTPPLAFGGGTKLEIKRTVAAPSVFIFPPSDEQLKSGTASVVCLLNNFYPREAKVQWKVDNALQSGNSQESVTEQDSKDSTYSLSSTLTLSKADYEKHKVYACEVTHQGLSSPVTKSFNRGEC
- Tumor volume (mm^3), Mean ± SEM ([1]; day 0 (first dosing), 3 mg/kg): 70 ± 7 mm^3
- Tumor volume (mm^3), Mean ± SEM ([1]; day 3, 3 mg/kg): 180 ± 10 mm^3
- Tumor volume (mm^3), Mean ± SEM ([1]; day 7, 3 mg/kg): 473 ± 36 mm^3
- Tumor volume (mm^3), Mean ± SEM ([1]; day 10, 3 mg/kg): 760 ± 52 mm^3
- T/C (%) ([1]; day 12, 3 mg/kg): 41.68%
- TGI (%) ([1]; day 12, 3 mg/kg): 59.74%
- Tumor volume / Tumor Size (mm^3) at day 12, Mean ± SEM ([1]; day 12, 3 mg/kg): 1235 ± 89 mm^3
- anti-tumor efficacy compared with the control group ([2]; after four weeks of dosing / day 43): no anti-tumor efficacy
- Tumor Body Weight (mg) on day 43 (Mean ± SEM) ([2]; i.v., BIW × 4 weeks, day 43): 2426.0 ± 283.0 mg
- Tumor Volume (mm^3) on day 43 (Mean ± SEM) ([2]; i.v., BIW × 4 weeks, day 43): 2148.89 ± 227.87 mm^3
- T/C (%) ([2]; from tumor body weight, day 43): 96%
- TGI (%) ([2]; from tumor body weight, day 43): 4%
- T/C (%) [2, 4]: 99%
- TGI (%) [2, 4]: 1%
- macrophage phagocytosis (untreated = 1.00) ([3]; Cpd 0, T4J = 0.1 ug/ml, R = 0): 2.20 and 2.41 and 2.30
- phagocytic ability of macrophages ([3]; agent itself or antibody combination): can promote macrophage phagocytosis

“And” between values parts separate entries of the source, which are not always exact repeats. Equal values may be shown once.
